A compilation of properties of binary mixtures (doi:10.1021/ie3024752)
The densities may have been worked out from excess volumes.

Assay: xn = mol fraction of the nth substance listed
Settings: 100 kPa

O=C[C@H](O)[C@@H](O)[C@H](O)[C@H](O)CO + CCCC[n+]1ccn(C)c1.N#C[N-]C#N
mass density [kg/m3]
Settings	x1 = 0.0313	x1 = 0.0937	x1 = 0.1849	x1 = 0.228	x1 = 0.2474
298 K	1069.4	1087.2	1115.7	–	1137.3
313 K	1059.9	1077.7	1106.1	1119.4	1127.8
328 K	1050.5	1068.4	1096.6	1109.9	–
343 K	1041.2	1059.1	1087.3	1100.4	1108.9

CCCC[n+]1ccn(C)c1.N#C[N-]C#N + OC[C@@H](O)[C@@H](O)[C@H](O)[C@@H](O)C=O
x2 = 0
Settings	mass density [kg/m3]
298 K	1060.6
313 K	1051.1
328 K	1041.7
343 K	1032.4
